Patent US8623347B2 (priority 2008, dated 2014)

Details: CC50 (Alamar Blue) / EC50 (LCMV ELISA)
Procedure: Compound 1 passed this medicinal chemistry filter and was evaluated for potency. Compound potency was determined by evaluating inhibitory activity across a broad range of concentrations, again using the cell-based ELISA. Nonlinear regression was used to generate best-fit inhibition curves and to calculate a 50% effective concentration (EC50) equivalent to 80 nM. The selectivity or specificity of a given compound is typically expressed as a ratio of its cytotoxicity to its biological effect. A cell proliferation assay is used to calculate a 50% cytotoxicity concentration (CC50); the ratio of this value to the EC50 is referred to as the therapeutic index (T.I.=CC50/EC50). To determine cytotoxicity, a fluorimetric assay that quantifies reduction of resazurin (Alamar Blue) was employed (8).

SMILES: c1ccc2[nH]c(-c3nc4ccccc4[nH]3)nc2c1 [Compound 1, 1H, 1′H-[2,2′]Bibenzoimidazolyl]
- therapeutic index (T.I.=CC50/EC50): > 310
